{"source": "paper PMC4102417", "system": "murine 3T3 fibroblasts", "assay": "primary screen, percent viability or growth; higher = less effect of the substance", "procedure": "Similarly, for measuring the cytotoxicity concentration (CC50) for 3T3 fibroblast cells, cultures were incubated with drugs for 72 hours and developed using Alamar Blue (Alamar Biosciences Inc, Sacramento, CA) as previously described.", "note": "The entries are a selection whose mix differs from that of the whole data set."}
{"compound": "CN1CCN(CCCN2c3ccccc3Sc3ccc(Cl)cc32)CC1.O=S(=O)(O)CCS(=O)(=O)O", "values": [{"measurement": "Mammalian (3T3) cell % growth at 10 uM", "value": -1, "unit": "%"}]}
